{"source": "paper PMC5515408", "note": "The other results are listed elsewhere or left out. At the low end of the ranking, values are background and their order means little.", "data": [{"biological_target": "MAX:MAX (p21) (UniProt P61244-2)", "assay": "protein-binding microarray (anti-MAX antibody)", "conditions": "PBM: 15 mM Tris-HCl pH 7.5, 100 mM KCl, 0.075% NP40, 7.5 mM beta-mercaptoethanol, 375 ng/ul BSA, 8 ng/ul poly(dA-dT):(dA-dT), 550 ng complex, 60 min, room …; high values mean tight binding; double strand, one strand shown; sequences stand for … in CCGGC…TTAATAGCTAAGATTACTATATCGACG", "values": [{"sequence": "TGAACGTTTGTA", "binding signal (log2 normalized fluorescence)": 0.0999}, {"sequence": "AGACAGGTGGGA", "binding signal (log2 normalized fluorescence)": 2.68}, {"sequence": "TGAGAGATGGTA", "binding signal (log2 normalized fluorescence)": -0.65}, {"sequence": "TGAGGTTTAGTA", "binding signal (log2 normalized fluorescence)": -1.4}, {"sequence": "TGAAACGGTGTA", "binding signal (log2 normalized fluorescence)": -0.298}, {"sequence": "TGAGGACTGGTA", "binding signal (log2 normalized fluorescence)": -0.571}, {"sequence": "TGATCCCACGTA", "binding signal (log2 normalized fluorescence)": 0.177}, {"sequence": "TGAGTTATCGTA", "binding signal (log2 normalized fluorescence)": -0.99}, {"sequence": "TGACATTATGTA", "binding signal (log2 normalized fluorescence)": 0.131}, {"sequence": "TGATCCTCCGTA", "binding signal (log2 normalized fluorescence)": -0.892}, {"sequence": "TGACCACTGGTA", "binding signal (log2 normalized fluorescence)": -0.0671}, {"sequence": "TGAACGATCGTA", "binding signal (log2 normalized fluorescence)": -0.644}, {"sequence": "TGAACAAGTGTA", "binding signal (log2 normalized fluorescence)": 0.0942}, {"sequence": "TGATCACGTGTA", "binding signal (log2 normalized fluorescence)": 3.48}, {"sequence": "TGAACCACCGTA", "binding signal (log2 normalized fluorescence)": 0.288}, {"sequence": "TGATACCTGGTA", "binding signal (log2 normalized fluorescence)": -0.845}, {"sequence": "TGAATTCCGGTA", "binding signal (log2 normalized fluorescence)": -1.2}, {"sequence": "TGAGGGGTTGTA", "binding signal (log2 normalized fluorescence)": 0.434}, {"sequence": "TGATCCGTTGTA", "binding signal (log2 normalized fluorescence)": -0.768}, {"sequence": "TGATTATCTGTA", "binding signal (log2 normalized fluorescence)": -1.04}, {"sequence": "TGAAATCCTGTA", "binding signal (log2 normalized fluorescence)": -0.887}, {"sequence": "TGAGTTGCAGTA", "binding signal (log2 normalized fluorescence)": -0.74}, {"sequence": "TGACAAAACGTA", "binding signal (log2 normalized fluorescence)": -0.112}, {"sequence": "TGATATGGAGTA", "binding signal (log2 normalized fluorescence)": -0.82}, {"sequence": "TGATATCCAGTA", "binding signal (log2 normalized fluorescence)": -1.08}, {"sequence": "AGACACGAGGTA", "binding signal (log2 normalized fluorescence)": 3.44}, {"sequence": "TGATAGATAGTA", "binding signal (log2 normalized fluorescence)": -1.1}, {"sequence": "TGAGATCTCGTA", "binding signal (log2 normalized fluorescence)": -0.834}, {"sequence": "TGACCCTCGGTA", "binding signal (log2 normalized fluorescence)": -0.472}, {"sequence": "GGAGCCGTGGTA", "binding signal (log2 normalized fluorescence)": 0.657}, {"sequence": "TGACACGCGATC", "binding signal (log2 normalized fluorescence)": 2.93}, {"sequence": "CGACACGGCGTA", "binding signal (log2 normalized fluorescence)": 0.94}, {"sequence": "TGAGTGGCTGTA", "binding signal (log2 normalized fluorescence)": 0.1}, {"sequence": "TGACATAGCGTA", "binding signal (log2 normalized fluorescence)": -0.366}, {"sequence": "TGACTGTTAGTA", "binding signal (log2 normalized fluorescence)": -0.399}, {"sequence": "TGAATAGTCGTA", "binding signal (log2 normalized fluorescence)": -1.18}, {"sequence": "TGATGTTTTGTA", "binding signal (log2 normalized fluorescence)": -0.281}, {"sequence": "TGAGAAATCGTA", "binding signal (log2 normalized fluorescence)": -0.612}, {"sequence": "TGAACATATGTA", "binding signal (log2 normalized fluorescence)": 2.12}, {"sequence": "TGACACGACATA", "binding signal (log2 normalized fluorescence)": 1.63}, {"sequence": "ATACACGTGGTA", "binding signal (log2 normalized fluorescence)": 3.25}, {"sequence": "TAAGTGACGTAG", "binding signal (log2 normalized fluorescence)": -0.575}, {"sequence": "TGAGTTATTGTA", "binding signal (log2 normalized fluorescence)": -1.01}, {"sequence": "TGACCCAATGTA", "binding signal (log2 normalized fluorescence)": -0.173}, {"sequence": "ATCAGGGAATAG", "binding signal (log2 normalized fluorescence)": 0.438}, {"sequence": "TGAAATAGAGTA", "binding signal (log2 normalized fluorescence)": -1.09}, {"sequence": "TGACCTTGGGTA", "binding signal (log2 normalized fluorescence)": -0.45}, {"sequence": "TGATAGGAGGTA", "binding signal (log2 normalized fluorescence)": -0.743}, {"sequence": "TGAGGTACTGTA", "binding signal (log2 normalized fluorescence)": -0.419}, {"sequence": "TGACTTCGAGTA", "binding signal (log2 normalized fluorescence)": -0.833}, {"sequence": "TGAGCGTCGGTA", "binding signal (log2 normalized fluorescence)": -0.699}, {"sequence": "AGACGCGGGGTA", "binding signal (log2 normalized fluorescence)": 1.2}, {"sequence": "TGACTATCTGTA", "binding signal (log2 normalized fluorescence)": -0.776}, {"sequence": "TGAACCGCCGTA", "binding signal (log2 normalized fluorescence)": -0.579}, {"sequence": "TGACACGTTACA", "binding signal (log2 normalized fluorescence)": 3.06}, {"sequence": "TGACCCGTGATA", "binding signal (log2 normalized fluorescence)": 2}, {"sequence": "TGAGTGAGCGTA", "binding signal (log2 normalized fluorescence)": -0.515}, {"sequence": "TGTTCCGTGGTA", "binding signal (log2 normalized fluorescence)": 0.387}, {"sequence": "TGACAGCACGTA", "binding signal (log2 normalized fluorescence)": 1.16}, {"sequence": "TGACACTCTGTA", "binding signal (log2 normalized fluorescence)": 0.154}, {"sequence": "TGAGCAATGGTA", "binding signal (log2 normalized fluorescence)": -0.491}, {"sequence": "TGAAGAAAGGTA", "binding signal (log2 normalized fluorescence)": -0.473}, {"sequence": "TGACCGAACGTA", "binding signal (log2 normalized fluorescence)": -0.486}, {"sequence": "TGAGTGTGTGTA", "binding signal (log2 normalized fluorescence)": 0.665}, {"sequence": "TGATCTCTCGTA", "binding signal (log2 normalized fluorescence)": -0.941}, {"sequence": "TGAAAAGAAGTA", "binding signal (log2 normalized fluorescence)": -0.248}, {"sequence": "TGACACGTGAAC", "binding signal (log2 normalized fluorescence)": 3.16}, {"sequence": "TGAAACTTGGTA", "binding signal (log2 normalized fluorescence)": -0.705}, {"sequence": "AGACGCATGGTA", "binding signal (log2 normalized fluorescence)": 3.11}]}]}
